Results reported in PubChem BioAssay AID743279 (National Center for Advancing Translational Sciences (NCATS), 2014).
In all, about 360,000 compounds went through this assay and about 17,000 (4.7%) were called active. The inconclusive results got no clear call from the source; some entries with a clear call stand among them for comparison. Cut-off read from the data, not from the text of the source: active = activity change below about -50%; inconclusive = mostly about -30% to -49%; inactive = weaker than that.

assay: qHTS for Inhibitors of Inflammasome Signaling: IL-1-beta AlphaLISA Primary Screen; settings: THP-1 LPS/ATP IL-1B secretion, 16 h; at 57.5 µM, hits give low values
In short: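 Secreted IL-1B measured by AlphaLISA bead assay after 16 h compound exposure of THP-1 cells; compounds (final up to 57.5 uM) added 1 h before LPS (250 ng/mL) and ATP (1.25 mM) stimulation; lower signal means less secretion.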
% is set by controls: 0 for no effect and ±100 for the full control effect.

| Structure (SMILES) | activity change |
| --- | --- |
| Cc1ccc(-c2cc(C(=O)Nc3ccc4c(c3)OCCO4)c3ccccc3n2)cc1 | inconclusive: -37.2% |
| CCOC(=O)c1c(C)n(-c2ccccc2)c2ccc(OCCN(C)C)cc12 | active: -80.2% |
| CC1=NN(C(=O)c2ccoc2C)C(O)(C(F)(F)F)C1 (stereo not drawn) | inactive: -1.83% |
| CCCCSc1nnc(-c2ccc(NC(=O)CC)cc2)n1C | inconclusive: -31.3% |
| Cc1ccc(NC(=O)c2cc(C)n(-c3ccccc3)c2C)cc1 | active: -82.9% |
| CCCCC(=O)NC(=S)Nc1cccc(NC(=O)c2ccco2)c1 | inactive: -29.3% |
| CCc1ccccc1NC(=O)CSc1nnc([C@@H]2CCCN2C(=O)OC(C)(C)C)o1 | inconclusive: -41% |
| CN(C)c1ccc(CN(C(=O)c2ccc(Cl)c([N+](=O)[O-])c2)C2CCS(=O)(=O)C2)cc1 (stereo not drawn) | active: -75.1% |
| CC12CCC3c4ccc(O)cc4CCC3C1CC(=NO)C2O (stereo not drawn) | inactive: 29.3% |
| O=c1c(Cc2ccc(Cl)cc2Cl)c(O)ccn1Cc1ccncc1 | inconclusive: -32.2% |
| O=C(CSCc1ccccc1)N/N=C/c1ccccc1OCc1ccccc1 | inconclusive: -33.4% |
| Cn1nc(C(=O)NCCc2ccc(S(N)(=O)=O)cc2)c2c1-c1ccccc1S(=O)(=O)C2 | inactive: 0% |
| O=C(NC1=C(Nc2ccc(Cl)cc2)C(=O)c2ccccc2C1=O)c1ccccc1 | inconclusive: -40.9% |
| CCOC(=O)N/N=C/c1ccc(N(CC)CC)cc1O | inactive: 8.45% |
| CC(C)c1ccc(NC(=O)c2ccc(NS(C)(=O)=O)cc2)cc1 | inactive: -9.64% |
| Cc1ccc(NC(=S)N(CCN(C)C)Cc2cccs2)c(C)c1 | inconclusive: -44.9% |
| CC(C)C1C(=O)N(Cc2cn(CCC3OCCO3)nn2)CCS(=O)(=O)N1Cc1ccc(-c2ccc(Cl)cc2)cc1 (stereo not drawn) | inconclusive: -38.5% |
| COc1ccc(C(=O)C2CCCN(C(=O)Cn3nc(C)cc3C)C2)cc1F (stereo not drawn) | inactive: -3.6% |
| CCCCN(C(=O)c1ccc(-c2ccc(Cl)cc2)o1)c1c(N)n(CC(C)C)c(=O)[nH]c1=O | inactive: 41.5% |
| Cc1c(C(=O)OCc2ccc(F)cc2)sc2nc3n(c(=O)c12)CCC3 | inactive: 29.7% |
| c1ccc(Cn2c(CNc3nc4ccccc4n3CCN3CCCCC3)nc3ccccc32)cc1 | active: -50.5% |
| O=C(N/N=C/c1ccc(N2CCOCC2)s1)c1ccc(O)cc1 | inconclusive: -45.9% |

| Structure (SMILES) | activity change |
| --- | --- |
| Cc1ccc(-n2cccn2)c(CN2CCCC(C(=O)c3sccc3C)C2)c1 (stereo not drawn) | active: -95.2% |
| COc1cc(NC(=O)c2cccs2)c(C(=O)OCC(=O)NCc2ccco2)cc1OC | inactive: -20.6% |
| CC(C)N1CCc2c(sc(NC(=O)c3ccc(S(=O)(=O)N4CCOCC4)cc3)c2C(N)=O)C1 | inconclusive: -30.4% |
| COc1ccc(CNc2nc3c(c(=O)n(Cc4ccc(Cl)cc4)c(=O)n3C)n2C)cc1 | inconclusive: -39.5% |
| C=CCC[C@@H](Cc1ccc(F)cc1)C(=O)OC[C@H](C)NC(=O)[C@H](CC=C)CC(=O)N(CCO)Cc1ccccc1 | inconclusive: -44.2% |
| COc1ccc(CN(C)CC(=O)Nc2sc3c(c2C#N)CCC3)cc1OC | inconclusive: -37.8% |
| Cc1cc(NS(=O)(=O)c2c(C(=O)N3CCOCC3)c(C)n(C)c2C)ccc1Br | inconclusive: -42% |
| COc1ccc(-c2csc(NC(=O)c3ccccc3F)c2C(=O)O)cc1 | inconclusive: -41.8% |
| Nc1ccccc1Nc1cc(-c2cccc(Cl)c2)nn1-c1ccccc1 | inconclusive: -33.5% |
| CC1(C2CC(=O)c3c(O)ccc(O)c3C2)OCCO1 (stereo not drawn) | inactive: -10.4% |
| c1ccc(-n2nnc3cnccc32)cc1 | inconclusive: -30.2% |
| CC(=O)Nc1ccc(CN2CCN(CCc3ccccc3)C(CCO)C2)cc1 (stereo not drawn) | active: -79.1% |
| CCC(=O)N(CCc1ccccc1)Cc1cc2cc3c(cc2[nH]c1=O)OCO3 | inconclusive: -46% |
| Cc1c(OCC(=O)NC2CC(C)(C)NC(C)(C)C2)ccc2c1oc(=O)c1ccccc12 | inconclusive: -40.1% |
| Cc1ccc(-c2c[n+](Cc3cccc(Cl)c3)c3n2CCC3)cc1 | active: -81.1% |
| CCC1CN(C(=O)N2CCC(C(=O)NCCc3ccc(OC)cc3OC)CC2)c2ccccc2O1 (stereo not drawn) | inconclusive: -30.9% |
| Cn1c(SCC(=O)N2c3ccccc3CCc3ccccc32)nnc1-c1cc2ccccc2cc1O | inconclusive: -33.9% |
| Cc1ccc2c(c1)N(C(=O)CCC(=O)NCc1cccc(Br)c1)CC(C)O2 (stereo not drawn) | inconclusive: -34.8% |
| Cc1cc(CCNC=O)c(C)c2c1sc1ccccc12 | inconclusive: -37.4% |
| CCOC(=O)c1cc(-c2cccnc2)nn1-c1ccccc1 | active: -97.9% |
| O=C(CSc1nc2ccccc2c(=O)n1NC(=O)c1ccccc1)c1ccc(Cl)cc1 | inconclusive: -33.1% |
